# From publication PMC4336329 (PLoS ONE, 2015)
# The campaign covered roughly 310,000 compounds. About 2,200 (0.71%) showed an effect of 50% or more. The effect is printed as a negative number. Some of the results follow.
# Biological target: human ether-à-go-go-related gene (hERG) potassium channel (human, UniProt Q12809)
# Experiment: primary screen, population patch clamp on CHO cells stably expressing hERG
# Chain of human ether-à-go-go-related gene (hERG) potassium channel (Q12809 whole entry, looked up): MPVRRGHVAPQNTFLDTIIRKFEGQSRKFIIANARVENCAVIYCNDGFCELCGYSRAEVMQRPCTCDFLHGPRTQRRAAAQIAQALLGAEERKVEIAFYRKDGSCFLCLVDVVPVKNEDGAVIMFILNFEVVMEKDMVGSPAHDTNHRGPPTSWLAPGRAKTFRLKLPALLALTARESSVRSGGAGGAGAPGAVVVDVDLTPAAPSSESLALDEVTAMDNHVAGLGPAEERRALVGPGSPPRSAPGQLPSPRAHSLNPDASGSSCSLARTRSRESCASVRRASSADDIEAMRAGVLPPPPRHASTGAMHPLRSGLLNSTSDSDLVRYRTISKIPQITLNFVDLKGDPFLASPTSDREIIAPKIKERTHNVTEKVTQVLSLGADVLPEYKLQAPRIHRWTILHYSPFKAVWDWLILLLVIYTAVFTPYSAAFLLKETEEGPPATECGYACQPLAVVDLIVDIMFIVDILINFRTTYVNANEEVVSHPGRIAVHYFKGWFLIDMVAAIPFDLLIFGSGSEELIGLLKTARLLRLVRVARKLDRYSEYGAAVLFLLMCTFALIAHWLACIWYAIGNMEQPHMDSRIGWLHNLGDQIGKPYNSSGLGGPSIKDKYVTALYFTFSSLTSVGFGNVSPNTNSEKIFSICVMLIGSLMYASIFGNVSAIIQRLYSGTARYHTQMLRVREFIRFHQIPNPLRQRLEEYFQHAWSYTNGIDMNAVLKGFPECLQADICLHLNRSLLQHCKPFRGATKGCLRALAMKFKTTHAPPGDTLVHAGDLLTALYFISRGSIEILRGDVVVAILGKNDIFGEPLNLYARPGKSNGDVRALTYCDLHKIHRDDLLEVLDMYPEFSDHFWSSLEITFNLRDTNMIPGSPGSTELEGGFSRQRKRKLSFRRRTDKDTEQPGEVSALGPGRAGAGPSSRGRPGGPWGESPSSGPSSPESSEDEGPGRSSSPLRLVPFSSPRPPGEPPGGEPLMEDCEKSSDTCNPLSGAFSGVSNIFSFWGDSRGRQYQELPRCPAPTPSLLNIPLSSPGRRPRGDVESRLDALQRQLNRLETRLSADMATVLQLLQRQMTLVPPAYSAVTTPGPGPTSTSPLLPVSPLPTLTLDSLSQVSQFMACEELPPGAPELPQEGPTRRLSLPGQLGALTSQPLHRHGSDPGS
row,SMILES,"hERG current change (%, negative = inhibition) at 1uM"
1,CCCCCc1nnc(NC(=O)c2ccc(=O)n(C)n2)s1,4.3%
2,COc1ccc(C)cc1NC(=O)C(C)N(c1ccc(C)cc1)S(C)(=O)=O (stereo not shown),-0.341%
3,Cc1ccc(NC(=O)C2CCN(S(=O)(=O)c3c(C)nn(C)c3C)CC2)c(Cl)c1,0.0548%
4,Cc1cccc(-n2c(O)c(C=NCCCN3CCOCC3)c(=O)[nH]c2=O)c1C,12.4%
5,Cc1c(C(=O)Oc2cccc3cccnc23)oc2ccccc12,12%
6,CC(=O)Nc1ccc(S(=O)(=O)NC2CC(=O)N(c3cccc(F)c3)C2)cc1 (stereo not shown),6.46%
7,CCC(=O)c1c[nH]c(C(=O)N2CCOCC2)c1,13.6%
8,COc1ccccc1N1CCN(C(=O)C2CCN(C(=O)c3ccccc3Cl)CC2)CC1,-0.259%
9,Nc1cc(=O)[nH]c(=O)n1-c1cccc(F)c1,13.2%
10,Cc1c(CC(=O)O)c(=O)oc2c(C)c(OCc3ccccc3)ccc12,8.82%
11,CCn1c2ccccc2c2cc(/C=N/NC(=O)c3ccccc3)ccc21,7.78%
12,COc1cc(C(=O)N2CCN(C(=O)c3cc(-c4ccccc4)n[nH]3)CC2)cc(OC)c1OC,-21.9%
13,c1ccc(CSCc2nc3ccccc3[nH]2)cc1,4.03%
14,Cc1c(-c2cccs2)[n+](=O)c2c(n1[O-])CCCCC2,12.3%
15,COc1cc2c(cc1NC(=O)C(C)N1CCN(S(=O)(=O)c3ccccc3[N+](=O)[O-])CC1)oc1ccccc12 (stereo not shown),-12.4%
16,CCc1c(C)nc(N)nc1N1N=C1SC,8.55%
17,CC(=O)NCCCNS(=O)(=O)c1ccc(C)cc1,10.3%
18,O=C(CN1CCCN(S(=O)(=O)c2ccc(F)cc2)CC1)Nc1ccccc1Br,-3.13%
19,Cc1ccc(NC(=S)N2CCN(c3nccc(C(F)(F)F)n3)CC2)c(C)c1,12.5%
20,COc1ccc(CNC(=O)c2ccc(Br)cc2)cc1,3.36%
21,CC(OC(=O)c1ccc([N+](=O)[O-])s1)C(=O)Nc1ncc(Cl)cc1Cl (stereo not shown),-4.79%
22,COc1ccc(NC(=O)c2ccc3c(c2)NC(=O)CO3)cc1OC,12.1%

row,SMILES,"hERG current change (%, negative = inhibition) at 1uM"
1,COCCNC(=O)C(c1ccc(O)cc1)N(Cc1ccccc1)C(=O)CCC(=O)Nc1ccccn1 (stereo not shown),-0.25%
2,NC(=O)COC(=O)/C=C/c1ccc2ccccc2n1,13.5%
3,CCN(CC)CCN=Cc1c(O)n(C2CCCCCC2)c(=O)[nH]c1=O,2.8%
4,O=C(Cc1ccccc1)Oc1ccc(N2C(=O)C3CCCCC3C2=O)cc1 (stereo not shown),-4.06%
5,CCCc1nc2cc(Cl)c([N+](=O)[O-])cc2o1,9.77%
6,O=C(c1nn(-c2ccccc2)c(=O)c2ccccc12)N1CCN(c2ccccn2)CC1,-0.048%
7,CCOc1ccc(C(=O)NC2CC(=O)N(c3ccc4c(c3)OCCO4)C2)cc1 (stereo not shown),3.76%
8,NC(=O)c1ccsc1NC(=O)COC(=O)c1ccccc1NCc1ccco1,2.49%
9,CCN(CC)CCC(=O)Nc1ccc2c(c1)N(C(=O)CN(CC)CC)c1ccccc1CC2.Cl.O,7.98%
10,Cc1ccc(Cl)c(OCC(=O)Nc2ccc3c(c2)OCCO3)c1,11.8%
11,Clc1ccc(/C=N/Nc2ncnc3ccccc23)cc1Cl,11.7%
12,CCCCNC(=O)/C=C/c1ccc(S(=O)(=O)Nc2ccc(OC)cc2)cc1,9.16%
13,CC(=O)OCCN(CCCn1c(-c2ccncc2)nc2ccccc21)c1nc(CN2CCCCC2)cs1,-37.8%
14,CSc1ccccc1NC(=O)c1cc(C(C)C)on1,14%
15,COc1ccc2[nH]c(C)c(CCNC(=S)Nc3cccc(C)c3C)c2c1,18.2%
16,O=C(CNc1ccc(C(F)(F)F)cc1[N+](=O)[O-])OCC(=O)c1ccccc1,-4.69%
17,CN1CCN(NC(=O)c2ccc(S(=O)(=O)N3CC4(C)CC3CC(C)(C)C4)cc2)CC1.Cl (stereo not shown),7.2%
18,CCn1cc(Br)c(C(=O)Nc2ccc(Cl)cc2Cl)n1,13.9%
19,Cc1cc(S(=O)(=O)N2CCN(c3ccccc3F)CC2)ccc1-n1cnnn1,7.6%
20,Cc1[nH]c(=O)c(C#N)c(C)c1Cl,4.51%
21,COc1cc(/C=N/NC(=O)c2ccccc2Cl)ccc1Oc1ccc([N+](=O)[O-])cn1,-5.81%
22,CCN(C(=O)c1ccc(Cl)c([N+](=O)[O-])c1)c1ccccc1,-6.86%

row,SMILES,"hERG current change (%, negative = inhibition) at 1uM"
1,O=C(Nc1nnc(CC2=CCCCC2)s1)c1cccs1,21.5%
2,O=C(Cc1ccc(Cl)cc1)NCCCn1ccnc1,9.11%
3,Cc1ccc(/C=C/C(=O)O)cc1S(=O)(=O)N1CCc2ccccc2C1,19%
4,Cc1ccccc1N=C(NOCc1ccccc1)c1nonc1N,11.6%
5,COc1cccc(CNC(=O)c2nnn(CC(=O)Nc3c(C)cccc3C)c2N)c1,16%
6,O=C(CNS(=O)(=O)c1ccc(Br)cc1)NC1CCCC1,19.4%
7,Cc1ccc(N(CC(=O)NC2CCCC2)C(=O)CNC(=O)c2cccs2)cc1F,20.1%
8,CCCCS(=O)(=O)N1CN(S(=O)(=O)CCCC)C2NC(=O)NC21 (stereo not shown),5.79%
9,COc1ccc(-c2cc(N3CCCC3)n3ncnc3n2)cc1,-6.72%
10,NS(=O)(=O)c1cccc(NC(=O)CSc2ncc(C(F)(F)F)cc2Cl)c1,8.83%
11,Cn1c(=O)c2c(SCC(=O)N3CCCCC3)nc(-c3ccccc3F)nc2n(C)c1=O,17%
12,N#C/C(=C\c1cccn1-c1ccccc1)C(=O)NC1CCCCC1,12%
13,CCOC(=O)c1cnc2c(-c3ccccc3)c(C)nn2c1N,7.34%
14,Cl.O=c1cc(CN2CCNCC2)nc2sccn12,7.27%
15,CCOC(=O)c1c(NC(=O)C(C)Sc2cn(C)c3ccccc23)sc2c1CCC2 (stereo not shown),16.7%
16,Cc1c(-n2c(SC(C)C(=O)NC(N)=O)nc3ccccc3c2=O)c(=O)n(-c2ccccc2)n1C (stereo not shown),11.4%
17,CCc1nn(C(C)C(=O)NC2CCCCCC2)c(=O)c2cc3occc3n12 (stereo not shown),-3.97%
18,CCN(CC(=O)Nc1ccc(NC(C)=O)cc1)C(=O)CCCOc1cccc(C)c1,6.48%
19,Cc1ccc2nc(N3CC(C)OC(C)C3)nc(-c3ccccc3)c2c1 (stereo not shown),10%
20,Cc1cc2cc(CNC(=O)NC3CCCCC3)ccc2n1C,2.93%
21,O=C(NCCn1ccc2ccccc21)c1ccc(S(=O)(=O)N2CCCCC2)cc1,5.93%
22,O=C(/C=C/c1ccccc1[N+](=O)[O-])NCc1cccnc1,14%

row,SMILES,"hERG current change (%, negative = inhibition) at 1uM"
1,O=C(/C=C/c1ccc(F)cc1)NC(=S)N1CCOCC1,9.09%
2,CCOc1ccccc1NC(=O)NC(C)c1ccncc1 (stereo not shown),8.99%
3,Cc1nn(Cc2ccc([N+](=O)[O-])cc2)c(=O)n1-c1ccc(Cl)cc1,-23.7%
4,COc1cc(NC(=O)C2CC(c3c(F)cccc3Cl)=NO2)cc(OC)c1OC (stereo not shown),-1.02%
5,COCCNc1oc(Cc2cccc3ccccc23)nc1C#N,13.3%
6,Cc1cc(C)c(O)c(-c2cc(C(=O)Nc3c(C)n(C)n(-c4ccccc4)c3=O)[nH]n2)c1,-2.72%
7,CSc1ccc(S(=O)(=O)N2CCC(C(=O)NC3CC3)CC2)cc1,9.26%
8,Cc1ccc(-c2nnc(SCC(=O)NNC(=O)COc3cccc4ccccc34)n2C)cc1,9.81%
9,CCC(=O)Nc1ccc(Nc2nc(C)c([N+](=O)[O-])c(Nc3ccc(NC(=O)CC)cc3)n2)cc1,10.5%
10,CC1=C(C(=O)OC(C)(C)C)C(c2ccco2)C(C#N)=C(N)O1 (stereo not shown),20.2%
11,Brc1ccc2c(c1)[C@H]1OCC[C@H]1[C@@H](c1cccs1)N2,9.78%
12,COc1ccc(-c2[nH]nc3c2C(c2ccsc2)C(C#N)=C(N)O3)cc1 (stereo not shown),19.5%
13,COc1cc(C(C)=O)ccc1OCc1cc(C(=O)N(C)CCC2CCCCO2)no1 (stereo not shown),26.5%
14,O=C(COC(=O)c1ccccc1C(=O)c1ccc(Cl)c([N+](=O)[O-])c1)NC1CCCCCC1,14.6%
15,Cc1sc2nc(CSCC(=O)NC3(C#N)CCCCC3)[nH]c(=O)c2c1C,20.1%
16,O=[N+]([O-])c1cccc(C2(O)COc3ccccc3O2)c1 (stereo not shown),11.6%
17,CCOc1ccc(OCC)c(S(=O)(=O)NC2CC(C)(C)NC(C)(C)C2)c1,14.7%
18,COc1ccc(OCC(=O)Nc2c3c(nn2C(C)(C)C)CS(=O)(=O)C3)cc1,3.32%
19,COc1ccccc1-c1cc(C(=O)N2CCCC2)no1,0.778%
20,CC(C)(C)OC(=O)NCC(=O)Oc1cc2oc(=O)cc(-c3ccccc3)c2cc1Cl,5.72%
21,CCOC(=O)CNC1CC(=O)N(c2ccc(Br)cc2)C1=O (stereo not shown),21.8%
22,CCOc1ccc(C(CC(=O)O)NC(=O)C23CC4CC(CC(C4)C2)C3)cc1OC (stereo not shown),14.3%
